# In PubChem BioAssay AID624417 (National Center for Advancing Translational Sciences (NCATS), 2012):
# In all, about 410,000 compounds went through this assay and about 6,400 (1.6%) were called active. The inconclusive results got no clear call from the source; some entries with a clear call stand among them for comparison. Calls come from the whole dose curve; as a rule, active = well fitted inhibition curve with a large enough effect; inconclusive = small, poorly fitted or top-dose-only effect; inactive = no such curve, though single readings can be large or run the other way. No potency is given beside an inconclusive call; the fits are too rough.
# Biological target: Glucagon-like peptide 1 receptor (Homo sapiens) (UniProt P43220)
# Experiment: qHTS of GLP-1 Receptor Inverse Agonists (Inhibition Mode); note: nearly all actives have a fitted effect of over 55% in size
# Details: HEK293 GLP-1R CRE-luciferase, luminescence, 24 h, GLP-1R form is constitutively active; activity change, negative = inhibition: at 38.3 µM (top of the series) unless noted
# Method in brief: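 HEK293 cells stably co-expressing constitutively active GLP-1R and a cAMP-responsive luciferase reporter were seeded in DMEM with 10% Nu serum, given compounds after 12 h, and incubated 24 h at 37 deg C. Luminescence was then read.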
# % is set by controls: 0 for no effect and ±100 for the full control effect; potency is the fitted concentration of half-maximal effect; tags give direction and shape of the fitted curve.
# UniProt P43220, sequence (P43220 whole entry, looked up): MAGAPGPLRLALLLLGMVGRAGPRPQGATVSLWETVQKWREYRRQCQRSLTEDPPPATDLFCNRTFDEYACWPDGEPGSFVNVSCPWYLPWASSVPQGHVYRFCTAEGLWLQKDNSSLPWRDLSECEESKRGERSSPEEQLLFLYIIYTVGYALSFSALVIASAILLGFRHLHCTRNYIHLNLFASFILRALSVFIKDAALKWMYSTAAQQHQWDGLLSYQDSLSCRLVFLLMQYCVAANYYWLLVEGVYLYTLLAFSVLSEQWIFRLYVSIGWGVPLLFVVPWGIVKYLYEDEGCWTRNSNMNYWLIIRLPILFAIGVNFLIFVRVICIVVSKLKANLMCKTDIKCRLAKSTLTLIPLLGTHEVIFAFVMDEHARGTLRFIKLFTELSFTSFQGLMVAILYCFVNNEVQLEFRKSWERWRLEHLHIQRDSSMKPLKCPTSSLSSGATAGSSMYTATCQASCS
SMILES,"activity change, negative = inhibition",Potency
O=C(Nc1ccccc1F)c1cc(-c2ccco2)nc2ccccc12,inactive: -4.97%,
Cc1nc(-c2cccc(F)c2)sc1CCNC(=O)Cc1ccc(F)cc1,,"inconclusive [inhibitor, single point]"
COc1cccc(NC(=O)C2C(c3ccccc3)C2(Cl)Cl)c1 (centres undefined),,"inconclusive [inhibitor, partial curve, poor fit]"
c1ccc2nc3c(cc2c1)CCCCC3,,"inconclusive [inhibitor, single point]"
COc1ccc(-c2noc(C3CCCN(C(=O)Nc4ccccc4)C3)n2)cc1 (centres undefined),,"inconclusive [inhibitor, single point]"
CCn1cc(CN2CCCC(CNC(=O)COc3ccccc3OC)C2)c(C)n1 (centres undefined),inactive: -3.99%,
C=CCc1ccc(OCCOc2cccc3cccnc23)c(OC)c1,,"inconclusive [inhibitor, single point]"
COC(=O)c1ccc(C2/C(=C(\O)c3ccc(OC)c(C)c3)C(=O)C(=O)N2c2cc(C)on2)cc1 (centres undefined),inactive: 1.84%,
O=C(Cn1ncc(Cl)c(Cl)c1=O)NC1CCS(=O)(=O)C1 (centres undefined),inactive: 57.4%,
COC(=O)c1ccc(CSc2nc3ccccc3c(=O)n2Cc2ccco2)o1,,"inconclusive [inhibitor, single point]"
c1ccc(COc2ccccc2CNC23CC4CC(CC(C4)C2)C3)cc1,,"inconclusive [inhibitor, partial curve, poor fit]"
COc1cc(-c2noc(-c3cc4cccc(C)c4oc3=O)n2)cc(OC)c1OC,inactive: 13.2%,
CN(C)CCNC(=O)c1cccc2ccc(-c3ccc(-c4ccccc4)cc3)nc12,,"inconclusive [inhibitor, partial curve, poor fit]"
Cc1occc1-c1nc(-c2ccccn2)no1,,"inconclusive [inhibitor, single point]"
COc1ccc(-c2sc3ccc(N4CCOCC4)cc3c2C#CC2(O)CCCCC2)cc1,,"inconclusive [inhibitor, full curve, poor fit]"
CC1(C(=O)NS(=O)(=O)c2ccc(Cl)s2)CCN1C(=O)c1ccc(C2CCCCC2)cc1 (centres undefined),,"inconclusive [inhibitor, single point]"
CSc1ccc(Cc2ccc(Cl)cc2Cl)nn1,,"inconclusive [inhibitor, single point]"
COc1cc(S(=O)(=O)Nc2ccccc2C)ccc1Cl,,"inconclusive [inhibitor, single point]"
CCCSC1=NC2(CCN(C(=O)NC3CCCCC3)CC2)N=C1c1ccc(OC)cc1,,"inconclusive [inhibitor, single point]"
Cc1sc2ncnc(NCC(O)c3ccc([N+](=O)[O-])cc3)c2c1C (centres undefined),,"inconclusive [inhibitor, partial curve, poor fit]"
O=c1c2c3c(sc2nnn1CCCCOc1ccc(Cl)cc1)CCCC3,inactive: 21.3%,
COc1ccccc1-c1cc2nc(NCc3cccc(Cl)c3)ccn2n1,,"inconclusive [inhibitor, single point]"
O=C(c1ccccc1)c1nn(-c2ccccc2)c(=O)cc1C(F)(F)F,,"inconclusive [inhibitor, single point]"

SMILES,"activity change, negative = inhibition",Potency
C/C(=N\NC(=O)COc1ccc(C(C)(C)C)cc1)c1ccc(N2CCOCC2)cc1,,"inconclusive [inhibitor, single point]"
CC12CCC(C(=O)n3c1nc1ccccc13)C2(C)C (centres undefined),,active: 1.58 µM
CCOCCCN(C)C1CCN(C(=O)c2oc3ccccc3c2NC(=O)c2ccc([N+](=O)[O-])cc2)CC1,,"inconclusive [inhibitor, partial curve]"
Cc1[nH]n(C(N)=S)c(=O)c1N=Nc1cccc([N+](=O)[O-])c1C,inactive: 16%,
COc1cccc(-n2ccnc2SCC(=O)Nc2cccc3ccccc23)c1,,"inconclusive [inhibitor, single point]"
O=C1Nc2cc(C(=O)N3CCc4ccccc4C3)ccc2S/C1=C\c1ccccc1,,"inconclusive [inhibitor, partial curve, poor fit]"
Cc1cc(C(C)(C)C)cc(C)c1S(=O)(=O)N1CCN(C(=O)c2cc([N+](=O)[O-])c[nH]c2=O)CC1,,"inconclusive [inhibitor, partial curve]"
CCCCS(=O)(=O)N1CCCC(C(=O)Nc2ccc(Cl)cn2)C1 (centres undefined),,"inconclusive [inhibitor, partial curve]"
Cc1ccsc1C(=O)OCC(=O)NC1CCCCC1,,"inconclusive [inhibitor, single point]"
Brc1cccc(-c2nn(-c3ccccc3)c3c2cnc2cc4c(cc23)OCO4)c1,inactive: -8.68%,
Cc1ccc(C)c(CN2CCC(CNC(=O)C(CC(C)C)N3Cc4ccccc4C3=O)CC2)c1 (centres undefined),,"inconclusive [inhibitor, single point]"
COCCn1c(CNC(=O)c2ccccc2C)nc2cccnc21,inactive: 13.8%,
COC(=O)[C@@]12C[C@@H](CC(=O)NCc3cccc(C(F)(F)F)c3)C(=O)N(Cc3ccccc3)C1=CCC(C)(C)C2,,"inconclusive [inhibitor, single point]"
Cc1nc(NC(=O)C2CCCCC2)sc1C,,active: 8.91 µM
CN1CCN(C(=S)c2cn(Cc3ccccc3)c3ccccc23)CC1,,"inconclusive [inhibitor, single point]"
O=C(c1cccs1)N1CCCc2cc(NS(=O)(=O)c3ccc(Br)cc3)ccc21,,"inconclusive [inhibitor, single point]"
CCN(CC)c1ccc2c(C)c(CN3CCOCC3)c(=O)oc2c1,,"inconclusive [inhibitor, full curve]"
CCN1CCCC1CNC(=O)c1cc2c(-c3ccc(Cl)cc3)nn(C)c2s1 (centres undefined),,"inconclusive [inhibitor, single point]"
O=S(=O)(Cc1ccccc1)N1CCC(N2CCN(c3ccccc3)CC2)CC1,inactive: 0%,
NC(N)=N/N=C/c1cc([N+](=O)[O-])ccc1O,inactive: 18.6%,
COc1ccc2[nH]c3c(c2c1)CCN1C(=O)C(CC(=O)NCc2ccc(OC)c(OC)c2)C[C@H](C(=O)N2CCCCC2)[C@@]31CCc1ccccc1 (some centres undefined),inactive: 6.82%,
O=C(OCC(=O)c1ccc(Cl)cc1Cl)c1ccccn1,,"inconclusive [inhibitor, single point]"
Cc1ccc(S(=O)(=O)Nc2ccccc2CNc2ccccn2)cc1,,"inconclusive [inhibitor, single point]"

SMILES,"activity change, negative = inhibition",Potency
C=CC[C@H](CC(=O)NCCO)C(=O)N[C@@H](COC(=O)[C@@H](CC=C)Cc1ccc(F)cc1)Cc1ccccc1,inactive: -3.9%,
CNC(=O)CN(Cc1ccccc1)S(=O)(=O)c1ccc(Cl)cc1,inactive: 13.1%,
C=CCc1cc(Cl)ccc1OCCCNCCO,,"inconclusive [inhibitor, partial curve, poor fit]"
Fc1ccc(-c2csc(N3CCC(c4ccccc4)C3)n2)cc1 (centres undefined),inactive: 5.05%,
Cc1cccc(NC(=O)c2ccc(COc3ccc4ccccc4c3)o2)n1,,"inconclusive [inhibitor, single point]"
COc1ccccc1C(=O)Nc1ccc(S(=O)(=O)N2CCC(C)CC2)cc1,,"inconclusive [inhibitor, single point]"
O=C(O)c1nn(Cc2ncc(-c3cccc(Cl)c3)o2)c(=O)c2ccccc12,inactive: 20.7%,
CCN(c1ccccc1)S(=O)(=O)c1ccc(OC)c(NC(=O)C2CC(=O)N(Cc3ccccc3)C2)c1 (centres undefined),,"inconclusive [inhibitor, single point]"
CCSc1nc2sc3c(c2c(=O)n1-c1ccc(OC)cc1)CCN(C)C3,,"inconclusive [inhibitor, single point]"
Cc1cccc(NC(=O)CCCN2C(=O)C3CC=CCC3C2=O)c1 (centres undefined),,"inconclusive [inhibitor, full curve, poor fit]"
N#Cc1c(SCC(=O)Nc2nncs2)sc2c(O)cc(=O)[nH]c12,inactive: 1.9%,
CC1=NN(C(=O)COc2ccccc2C)C(O)(c2ccc(Cl)cc2)C1 (centres undefined),,active: 10 µM
C=CCn1c(SCC(=O)c2ccc(O)c(O)c2)nnc1-c1ccc(C)cc1,,"inconclusive [inhibitor, single point]"
Cc1nc([N+](=O)[O-])c(Br)n1CC(=O)c1ccc(F)cc1,,"inconclusive [inhibitor, partial curve, poor fit]"
Cc1[nH]c2ccccc2c1C(=O)C(C)Sc1nnc(C2CC2)o1 (centres undefined),inactive: -23.9%,
CCOC(=O)C1=C(C)N=c2s/c(=C/c3ccco3)c(=O)n2C1c1cccc(OC)c1 (centres undefined),,active: 11.2 µM
O=C(/C=C/c1ccco1)Nc1ccc(C(=O)N2CCOCC2)cc1,inactive: 20.6%,
CN(C)c1ccc(/C=N/NC(=O)C(O)(c2ccccc2)c2ccccc2)o1,inactive: -9.31%,
COc1ccc(-n2cc(CNCc3cccnc3)c(-c3cccc(F)c3)n2)cc1,,"inconclusive [inhibitor, single point]"
CCCCCCCCNC(CO)(CO)CO,,"inconclusive [inhibitor, single point]"
CCN(C(=O)Cn1c(=O)n(Cc2ccccc2)c(=O)c2ccccc21)c1cccc(C)c1,,"inconclusive [inhibitor, partial curve, poor fit]"
Cc1ccc(N=Nc2ccc(O)c3ncccc23)cc1C,,"inconclusive [inhibitor, full curve, poor fit]"
FC(F)(F)c1ccncc1-c1nnnn1-c1ccc(Cl)cc1,inactive: -14.2%,
